Measured values published in article PMC6919601, “Identification of Plasmodium dipeptidyl aminopeptidase allosteric inhibitors by high throughput screening” (PLoS ONE, 2019).
Out of some 110,000 compounds screened, about 230 (0.21%) showed an effect of 50% or more. The list shows a part of the results.
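Further: 30 min substrate incubation versus DMSO and 10 µM JCP410 controls.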

These compounds were tested against DPAP1 (Plasmodium falciparum, UniProt Q8IIJ9) (assay: primary screen, percent inhibition; read by cleavage of a fluorogenic dipeptide substrate; higher = more effect of the substance).
Chain of DPAP1 (Q8IIJ9 whole entry, looked up): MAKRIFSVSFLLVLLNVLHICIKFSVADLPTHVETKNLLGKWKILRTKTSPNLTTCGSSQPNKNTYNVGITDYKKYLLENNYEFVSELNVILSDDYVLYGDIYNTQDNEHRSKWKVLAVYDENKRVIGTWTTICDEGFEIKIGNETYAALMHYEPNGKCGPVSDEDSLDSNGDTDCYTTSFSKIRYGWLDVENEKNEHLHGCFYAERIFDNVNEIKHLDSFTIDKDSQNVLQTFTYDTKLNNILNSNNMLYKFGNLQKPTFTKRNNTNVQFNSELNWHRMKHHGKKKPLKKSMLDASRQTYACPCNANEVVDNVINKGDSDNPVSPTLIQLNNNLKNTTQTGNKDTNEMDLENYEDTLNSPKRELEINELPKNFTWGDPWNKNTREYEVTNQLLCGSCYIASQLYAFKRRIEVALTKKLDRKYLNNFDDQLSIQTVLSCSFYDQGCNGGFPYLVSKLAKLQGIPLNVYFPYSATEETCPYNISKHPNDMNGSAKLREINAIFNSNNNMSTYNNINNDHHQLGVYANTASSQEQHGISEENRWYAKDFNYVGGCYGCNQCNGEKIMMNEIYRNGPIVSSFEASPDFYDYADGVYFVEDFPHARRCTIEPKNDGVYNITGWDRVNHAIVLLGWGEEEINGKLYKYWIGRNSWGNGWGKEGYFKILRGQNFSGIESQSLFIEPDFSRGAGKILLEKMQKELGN
Set-up: species or system P. falciparum D10 trophozoite lysates; single well
In the case of CCOC(=O)c1[nH]c2ccccc2c1NC(=O)COc1ccc(Cl)cc1, the “% Inhibition @ 10 uM” value was -5.77%. With Nc1nonc1-n1nnc(C(=O)O)c1-c1ccc(C2CCCCC2)cc1 the “% Inhibition @ 10 uM” value was 4.84%. With CCCN1CCN(CCCNC(=O)CN2N=C(c3ccc(Cl)cc3)CCC2=O)CC1 the “% Inhibition @ 10 uM” value was -1.21%. CC(C)C(C(=O)NCc1ccccn1)N1Cc2ccccc2C1=O (stereo not shown) was tested, and the “% Inhibition @ 10 uM” value was 0.56%. With COCCN1C(=O)c2ccccc2C(C(=O)N2CCCCC2C)C1c1cn(C)c2ccccc12 (stereo not shown) the “% Inhibition @ 10 uM” value was 5.1%. For CC(=O)CCc1c(C)nc2ccccc2c1Cl, the “% Inhibition @ 10 uM” value was -7.15%. In the case of CCn1c(C(=O)O)cc2oc(C)cc21, the “% Inhibition @ 10 uM” value was 0.0882%. With COc1ccc(C(CC(=O)O)NC(C)=O)cc1OC (stereo not shown) the “% Inhibition @ 10 uM” value was 1.62%. With CC1CCCC(NC(=O)Cn2ncc3c4ccccc4n(C)c3c2=O)C1C (stereo not shown) the “% Inhibition @ 10 uM” value was -1.92%. In the case of COc1cc(CNc2ccc(F)c(Cl)c2)cc2c1OCO2, the “% Inhibition @ 10 uM” value was -2.18%. O=C(O)C1OC(c2cccc(Cl)c2)=NC12CC2 (stereo not shown) was tested, and the “% Inhibition @ 10 uM” value was 1.74%. In the case of CCCCP(=O)(O)COc1ccccc1O, the “% Inhibition @ 10 uM” value was -0.712%. For O=C(COc1ccc(Br)cc1)N1CCCc2ccccc21, the “% Inhibition @ 10 uM” value was -10.2%. With O=C(NC1CCCCC1)C(O)C(O)C(=O)NC1CCCCC1 (stereo not shown) the “% Inhibition @ 10 uM” value was 1.34%. N#CCNC(=O)C1(NC(=O)c2ccc(Cl)nc2)CCCCCC1 was tested, and the “% Inhibition @ 10 uM” value was 0.079%. In the case of COc1ccc(Cc2c(O)nc(S)nc2O)cc1, the “% Inhibition @ 10 uM” value was 2.6%. With CC(C)C(=O)n1nc(-c2ccco2)nc1NCc1ccccc1 the “% Inhibition @ 10 uM” value was -1.47%. With COc1ccc(CN2CCCCC2)c(OC)c1 the “% Inhibition @ 10 uM” value was 0.273%. In the case of CCc1ccccc1OCCN1CCOCC1, the “% Inhibition @ 10 uM” value was -4.8%. For Clc1cccc2c(NC3CCCCC3)cnnc12, the “% Inhibition @ 10 uM” value was -2.15%. With CC1=C(C(=O)Nc2ccc(C)cn2)C(c2ccc(N(C)C)cc2)C2=C(O)CC(C)(C)CC2=N1 (stereo not shown) the “% Inhibition @ 10 uM” value was 4.39%. In the case of O=C(Nc1ccncc1)c1cc(-c2ccccc2)nc2ccccc12, the “% Inhibition @ 10 uM” value was 1.59%. With c1ccc(CNCC2CCCCC2)cc1 the “% Inhibition @ 10 uM” value was 2.01%. With CCOc1ccc(NC(=O)C2=C(C)NC(=O)NC2c2ccc(O)c(OCC)c2)cc1 (stereo not shown) the “% Inhibition @ 10 uM” value was 2.19%. With C=CCn1c(SCC(=O)NC(=O)NC)nc2sc3c(c2c1=O)CCN(C(=O)OCC)C3 the “% Inhibition @ 10 uM” value was 0.101%. With CN(C)c1ccc(-c2nc(-c3ccccc3)nc(-c3ccccc3)n2)cc1 the “% Inhibition @ 10 uM” value was -1.29%. For Cc1cc(C)c(C#N)c(SCC(=O)NCCc2ccccc2)n1, the “% Inhibition @ 10 uM” value was 5.18%. CCCCC(=O)Nc1ccc(C(=O)c2ccccc2)cc1 was tested, and the “% Inhibition @ 10 uM” value was -2.65%. With CN(CCc1ccccn1)c1ncnc2c1cnn2C the “% Inhibition @ 10 uM” value was -0.757%. With O=S(=O)(Nc1ccc(S(=O)(=O)N2CCc3ccccc32)cc1)c1ccc(Cl)cc1 the “% Inhibition @ 10 uM” value was 3.8%. COC(=O)c1cc2sc(Cl)cc2n1Cc1cc(=O)n2ccccc2n1 was tested, and the “% Inhibition @ 10 uM” value was -5.37%. For COc1ccccc1/C=c1\sc2nc3cc(C)c(C)cc3n2c1=O, the “% Inhibition @ 10 uM” value was -0.053%. In the case of Cc1cc(C)n(-c2ncc(-c3ccccc3)nn2)n1, the “% Inhibition @ 10 uM” value was 2.1%. With CC1=CC2=NC(=O)/C(=C\c3ccc(OC(C)c4ccccc4)cc3)C(=N)N2O1 (stereo not shown) the “% Inhibition @ 10 uM” value was 2%. For C#CC(C)(C)NC(=O)/C=C/c1ccccc1Cl, the “% Inhibition @ 10 uM” value was 5.04%. For Cc1ccc(S(=O)(=O)Nc2nc3ccccc3nc2Nc2cccc(/C=C/C(=O)O)c2)cc1, the “% Inhibition @ 10 uM” value was 4.54%. For c1ccc(Oc2cccc(CNc3ccc4c(c3)CCC4)c2)cc1, the “% Inhibition @ 10 uM” value was -6%. N#Cc1c(N)nc(O)c(-c2ccccc2)c1-c1ccccc1 was tested, and the “% Inhibition @ 10 uM” value was -10.2%. For O=C(NC1(C(F)(F)F)C(=O)Nc2c1c(=O)[nH]c(=O)n2-c1ccc(F)cc1)c1cccs1 (stereo not shown), the “% Inhibition @ 10 uM” value was -1.22%. CCOc1ccc(S(=O)(=O)N(C(C)=O)c2ccc3oc(C)c(C(C)=O)c3c2)cc1 was tested, and the “% Inhibition @ 10 uM” value was -6.75%. O=C1NC(=O)/C(=C\c2ccc(-c3cccc(Br)c3)o2)S1 was tested, and the “% Inhibition @ 10 uM” value was 5.04%. In the case of Cc1ccn(-c2[nH]nc(C)c2[N+](=O)[O-])n1, the “% Inhibition @ 10 uM” value was -5.68%. In the case of CCc1c(C)nc2ccc(C)cc2c1O, the “% Inhibition @ 10 uM” value was 1%. With Cc1cc(C)n(-c2nc3c(c(=O)[nH]c(=O)n3C)n2C)n1 the “% Inhibition @ 10 uM” value was 2.7%. C#CC(C)(CC)NC(=O)c1cnn2c(C(F)(F)F)cc(-c3cccc(OC)c3)nc12 (stereo not shown) was tested, and the “% Inhibition @ 10 uM” value was -0.703%. With O=S(=O)(c1cc(Cl)ccc1Cl)N1CCc2ccccc21 the “% Inhibition @ 10 uM” value was 0.827%. With Cc1ccc(N(CC(=O)N2CCC(C)CC2)S(C)(=O)=O)cc1C the “% Inhibition @ 10 uM” value was -3.26%. For COc1cc(/C=C2/SC(=O)N(CC(=O)Nc3ccc(C)c(C)c3)C2=O)ccc1O, the “% Inhibition @ 10 uM” value was 10%. With CCOc1ccccc1/C=C1\N=C(c2cc(OC)c(OC)c(OC)c2)OC1=O the “% Inhibition @ 10 uM” value was 0.0855%. In the case of O=C(O)C1Cc2c([nH]c3ccccc23)C(c2ccccc2Cl)N1 (stereo not shown), the “% Inhibition @ 10 uM” value was -1.8%. For CC(=O)c1cccc(N2CN=c3s/c(=C\c4ccco4)c(=O)n3C2)c1, the “% Inhibition @ 10 uM” value was 2.11%. CCCCn1c(S)nc2ccccc21 was tested, and the “% Inhibition @ 10 uM” value was 4.88%. With N#C/C(=C\Nc1ccccc1O)C(=O)NC(=O)Cc1ccccc1 the “% Inhibition @ 10 uM” value was -2.87%. For CCn1cc2nc(SCC(=O)NCc3ccco3)n(CCc3ccccc3)c(=O)c2n1, the “% Inhibition @ 10 uM” value was -0.166%. With Cc1ccc(OC2OC(CO)C(O)C(O)C2O)cc1 (stereo not shown) the “% Inhibition @ 10 uM” value was -1.62%. With CN(Cc1ccccc1)C(=O)CCCN1C(=O)CSc2ncccc21 the “% Inhibition @ 10 uM” value was 1.03%. For Cc1nc2ccccc2c2oc(C(=O)NCCC3=CCCCC3)cc12, the “% Inhibition @ 10 uM” value was 1.62%. CCCCN(C)C(=O)Cn1cnc2sc(C)cc2c1=O was tested, and the “% Inhibition @ 10 uM” value was 42.9%. In the case of COCCN(CCc1ccncc1)S(=O)(=O)c1csc(C(N)=O)c1, the “% Inhibition @ 10 uM” value was -1.41%. For CCN(CC)c1ccc(NC(=O)c2cc(OC)c(OC)c(OC)c2)cc1, the “% Inhibition @ 10 uM” value was 1.86%. For COc1cc(NC(=O)c2cccc(OC(F)F)c2)cc(OC)c1OC, the “% Inhibition @ 10 uM” value was -5.35%. With COc1ccc(-c2cc(C(F)(F)F)nc(SCC(=O)N3CCOCC3)n2)cc1 the “% Inhibition @ 10 uM” value was -8.55%. With Cc1ccccc1CNC(=O)Nc1sc2nc3n(c(=O)c2c1C)CCC(C)CC3 (stereo not shown) the “% Inhibition @ 10 uM” value was 1.68%. Cn1c(=O)c2c(nc(CN3CCOCC3)n2Cc2cccc3ccccc23)n(C)c1=O was tested, and the “% Inhibition @ 10 uM” value was -4.14%. Cc1ccc(N(CC(=O)NC2CC2)S(=O)(=O)c2ccccc2)c(C)c1 was tested, and the “% Inhibition @ 10 uM” value was -2.28%. Cc1nc(SCc2nc3ccccc3[nH]2)c2ccccc2n1 was tested, and the “% Inhibition @ 10 uM” value was 1.17%. In the case of O=C(Cn1cc2c(n1)CCCC2)N1CCc2ccccc2C1, the “% Inhibition @ 10 uM” value was -3.58%. For O=C(Nc1cccc(Cl)c1)N1CCOCC1, the “% Inhibition @ 10 uM” value was 2.51%. With O=c1/c(=C/c2ccc(OCc3ccccc3)cc2)sc2nc(-c3ccco3)nn12 the “% Inhibition @ 10 uM” value was -3.64%. For COc1ccc(NC(=N)Nc2nc(O)cc(CSc3ccc(Cl)cc3)n2)cc1, the “% Inhibition @ 10 uM” value was -0.872%. Cc1ccccc1CN(c1ccc(C(=O)N2CCN(Cc3ccccc3)CC2)cc1)S(C)(=O)=O was tested, and the “% Inhibition @ 10 uM” value was -7.45%. O=C(NCC1CCCO1)c1cc(-c2ccc(F)cc2)no1 (stereo not shown) was tested, and the “% Inhibition @ 10 uM” value was 1.05%. With CCN(CC)CCN(C)Cc1ccc(NC(C)=O)cc1 the “% Inhibition @ 10 uM” value was -4.75%. CC1=CC(C)C(COC(=O)Nc2ccccc2)C(C)C1 (stereo not shown) was tested, and the “% Inhibition @ 10 uM” value was -6.82%. In the case of COc1ccc(CCn2c(SCC(N)=O)nc3nccnc3c2=O)cc1OC, the “% Inhibition @ 10 uM” value was -0.0652%. For CCOC(=O)c1cnc2cc(C)nn2c1O, the “% Inhibition @ 10 uM” value was -3.34%. With COc1ccc(CCNC(=O)c2c(C)cc(=O)oc2C)cc1OC the “% Inhibition @ 10 uM” value was -0.519%. In the case of Cc1c(NC(=S)NC(=O)c2ccc(-c3ccccc3)cc2)c(=O)n(-c2ccccc2)n1C, the “% Inhibition @ 10 uM” value was 5.61%. For Cc1nc2ccccc2nc1CSCc1ccco1, the “% Inhibition @ 10 uM” value was -1.05%. Cc1ccc(Cl)cc1N(CC(=O)NCCc1ccccc1)S(C)(=O)=O was tested, and the “% Inhibition @ 10 uM” value was 0.331%. For C=CCOc1ccc(S(=O)(=O)c2ccc(O)cc2)cc1, the “% Inhibition @ 10 uM” value was 1.63%. With CCC1=Nc2ncnn2C(c2cccc(OC)c2OC)/C1=C(/O)OC (stereo not shown) the “% Inhibition @ 10 uM” value was -3.37%. In the case of CCOC(=O)c1nnn(-c2nonc2N)c1CNCC(O)c1ccccc1 (stereo not shown), the “% Inhibition @ 10 uM” value was 2.8%. Cc1nc2c(C(=O)NCCCN3CCOCC3)cnn2c(C)c1Cc1ccc(F)cc1 was tested, and the “% Inhibition @ 10 uM” value was -0.519%. For Cc1ccc2[nH]c3c(c2c1)CCCC3C(=O)O (stereo not shown), the “% Inhibition @ 10 uM” value was 21%. O=c1c(-c2ccccc2)c(O)cc2c3ccccc3c3ccccc3n12 was tested, and the “% Inhibition @ 10 uM” value was 3.05%. In the case of CC(C)C1(O)c2ccccc2-c2ncccc21 (stereo not shown), the “% Inhibition @ 10 uM” value was 2%. In the case of CCn1c2ccccc2c2nnc(N3CCC(N4CCCCC4)CC3)nc21, the “% Inhibition @ 10 uM” value was 0.522%. For COc1ccc(C(=O)N/C(=C/c2ccc(F)cc2)C(=O)Nc2ccc(C)cc2)cc1OC, the “% Inhibition @ 10 uM” value was 2.36%. For O=C(Cc1ccccc1)Nc1ccc(S(=O)(=O)N2CCc3ccccc32)cc1, the “% Inhibition @ 10 uM” value was 5.03%. For COc1ccc(Br)cc1/C=C1N=C(/C=C/c2ccc(C)cc2)OC\1=O, the “% Inhibition @ 10 uM” value was 3.26%. O=C1CC(Sc2ccccn2)C(=O)N1c1ccccc1 (stereo not shown) was tested, and the “% Inhibition @ 10 uM” value was -4.41%. In the case of Cn1cccc1Cc1nnc(SCC(=O)NCC2CCCO2)n1Cc1ccccc1 (stereo not shown), the “% Inhibition @ 10 uM” value was -4.97%. With COCCNC(=O)C(=O)NCc1ccccn1 the “% Inhibition @ 10 uM” value was 1.81%. CCNS(=O)(=O)c1ccc(CCC(=O)NCc2cccnc2)cc1 was tested, and the “% Inhibition @ 10 uM” value was 5.93%. For CCOc1ccc(C(=O)Nc2ccc(NC(=O)c3cc4ccccc4o3)c(OC)c2)cc1, the “% Inhibition @ 10 uM” value was 2.39%. With CS/C(=N\Cc1ccco1)Nc1[nH]nc(C)c1-c1ccccc1F the “% Inhibition @ 10 uM” value was -2.28%. For O=S(=O)(/N=C(/c1ccccc1)N1CCOCC1)c1ccccc1, the “% Inhibition @ 10 uM” value was -1.1%. With O=C(c1ccc(-n2cnc3cccnc32)cc1)N1CCC2(CC1)OCCO2 the “% Inhibition @ 10 uM” value was -0.416%. In the case of CCC(=O)Nc1nn(C)c2nc(C)c(Cl)c(C)c12, the “% Inhibition @ 10 uM” value was 17.6%. CCOCCCNc1oc(/C=C/c2cc(OC)c(OC)c(OC)c2)nc1C#N was tested, and the “% Inhibition @ 10 uM” value was 0.895%. In the case of Cc1cc(C)nc(NC(=O)Nc2cccc3ccccc23)c1, the “% Inhibition @ 10 uM” value was 4.17%. With COC(=O)C1=C(C)N(Cc2ccco2)C(=O)/C1=C\c1cc(C)n(-c2ccccc2C(F)(F)F)c1C the “% Inhibition @ 10 uM” value was 3.27%.
